# Assay results reported in PubChem BioAssay AID588855 (National Center for Advancing Translational Sciences (NCATS), 2011).
# Among all 410,000 compounds or so, about 5,000 (1.2%) were called active. This list was built around the results that the source calls inconclusive (neither active nor inactive); the mix of calls is not that of the screen. The call rests on the fitted dose curve; in most records, active means well fitted inhibition curve with a large enough effect; inconclusive means small, poorly fitted or top-dose-only effect; inactive means no such curve, though single readings can be large or run the other way. Where the call is inconclusive, the potency comes from a doubtful curve fit.
# Assay: qHTS for Inhibitors of TGF-b; further: nearly all actives have a fitted effect of over 65% in size
# Conditions: HepG2 CAGA-GFP TGF-b/SMAD3 reporter, GFP fluorescence, 18 h, TGF-beta stimulated, 500 pg/mL final; series mostly up to 46.1 µM
# In short: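 GFP signal (ex488/em500-530) from TGF-beta-stimulated HEPG2 CAGA-GFP cells, 500 pg/mL final, 18 h at 37 degrees C in DMEM plus 1% FBS, normalized to unstimulated and DMSO-stimulated controls.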
# Potency means the concentration at half of the fitted maximal effect; tags describe the fitted curve by direction and shape.
row,Compound,Potency
1,CCOC(=O)C1=C(N)Oc2ccc3ccccc3c2C1c1ccc(O)c(OC)c1 (configuration not stated),"inconclusive: 35.5 µM [inhibitor, single point]"
2,C[C@@H](Nc1nc(Cl)nc2nc[nH]c12)c1ccccc1,inactive
3,Cc1cc(C)n(-c2nc3cc(Cl)c(Cl)cc3nc2Nc2ccc(F)cc2C)n1,"inconclusive: 0.126 µM [inhibitor, full curve, poor fit]"
4,Cc1ccc(NC(=O)c2cc3c(Cl)nc4ccc(C)cc4c3s2)c(Cl)c1,inactive
5,CCOc1ccccc1NC(=O)CN(c1ccc(OC)cc1)S(=O)(=O)c1c(C)noc1C,"inconclusive: 12.6 µM [inhibitor, single point]"
6,O=C(c1ccc(Cl)cc1)N1CCCCC1CCN1CCOCC1 (configuration not stated),"inconclusive: 0.562 µM [inhibitor, full curve, poor fit]"
7,CCCCCCC(=O)N(O)C1CC(=O)N(c2ccc(Cl)cc2)C1=O (configuration not stated),"inconclusive: 3.98 µM [inhibitor, single point]"
8,Cc1ccc(C)c(N2CCN(C(=O)c3cc4c(=O)n(Cc5cccnc5)ccc4nc3C)CC2)c1,"inconclusive: 35.5 µM [inhibitor, partial curve, poor fit]"
9,Cc1cccc(CSc2nc3cccnc3n2Cc2ccc(C(=O)NCc3cccs3)cc2)c1,"inconclusive: 35.5 µM [inhibitor, single point]"
10,Cc1ccc(Nc2nc(NCC3CC3)nc3ccsc23)c(C)c1,"inconclusive: 35.5 µM [inhibitor, single point]"
11,CCCCCCCCCCn1c2c(c(=N)c3c1CCC3)CCC2,active: 12.6 µM
12,CN(C(=S)NC(=O)C1CCCC1)c1ccccc1,"inconclusive: 35.5 µM [inhibitor, single point]"
13,CC1=CC(=O)C=C(C)C1=NOS(=O)(=O)c1ccccc1,"inconclusive: 25.1 µM [inhibitor, single point]"
14,COc1ccc(CNC(=O)c2ccc3c(c2)N(Cc2ccccc2F)C(=O)c2ccccc2S3=O)cc1 (configuration not stated),"inconclusive: 20 µM [inhibitor, partial curve, poor fit]"
15,CC(=O)Nc1nonc1-c1nnc(SCc2ccccc2C)n1C,inactive
16,O=C(COc1cccc2c1CCNC2=O)Nc1cccc(F)c1,inactive
17,COc1cccc(-c2ccc3c(N)c(C(=O)Nc4ccc(Cl)cc4F)sc3n2)c1,inactive
18,CCN(CC)C(=O)C1=C(C)N(CCC2=CCCCC2)C(=O)C(CC(=O)NC(c2ccccc2)c2ccccc2)C1 (configuration not stated),"inconclusive: 35.5 µM [inhibitor, single point]"
19,Cc1ccc(C2=Nc3ccccc3N(CC(=O)NCc3ccc(Cl)cc3)C(=O)C2)cc1C,inactive
20,O=C(c1ccc(OC2CCN(C/C=C/c3ccc(F)cc3)CC2)cc1)N1CCCC1,inactive
21,CC1(C(=O)Nc2cccc3cccnc23)CCN1Cc1cccc2c1OCO2 (configuration not stated),"inconclusive: 11.2 µM [inhibitor, partial curve, poor fit]"

row,Compound,Potency
1,CC(C)c1nnc(NC(=O)c2nc(S(=O)(=O)Cc3ccc(F)cc3)ncc2Cl)s1,"inconclusive: 35.5 µM [inhibitor, single point]"
2,COc1ccc(CCNC(=O)c2ccc3c(c2)CCN3S(=O)(=O)c2ccc(Cl)cc2)cc1,"inconclusive: 7.94 µM [inhibitor, partial curve]"
3,OC(c1ccc(F)cc1)c1nc(-c2ccc(F)c(Cl)c2)cs1 (configuration not stated),"inconclusive: 20 µM [inhibitor, single point]"
4,O=C(CN1CCN(Cc2ccc(F)cc2)CC1)Nc1nc2ccccc2s1,"inconclusive: 14.1 µM [inhibitor, partial curve, poor fit]"
5,COc1nc(N)nc(NC(=O)c2cccs2)c1N=O,"inconclusive: 22.4 µM [inhibitor, partial curve, poor fit]"
6,C/C(=N\NC(=O)C1(C)CC1(Br)Br)c1cccc(NC(=O)c2ccc(C)o2)c1 (configuration not stated),inactive
7,O=C(Nc1ccc(F)cc1)Nc1nnc(COc2ccccc2F)s1,"inconclusive: 35.5 µM [inhibitor, single point]"
8,CCOc1ccccc1C1CC(=O)NC(C)=C1C(=O)OC1CCCCCC1 (configuration not stated),"inconclusive: 35.5 µM [inhibitor, single point]"
9,COC(=O)C(Nc1ccccc1Cl)(c1cc(C)c(O)c(C)c1)C(F)(F)F (configuration not stated),active: 10 µM
10,Cc1ccc(C(=O)Nc2ccc(C(=O)O)cc2)cc1S(=O)(=O)Nc1cccc([N+](=O)[O-])c1,"inconclusive: 6.31 µM [inhibitor, single point]"
11,O=C(Nc1cc(S(=O)(=O)Nc2ccc(Cl)cc2)ccc1O)c1ccc(S(=O)(=O)N2CCCCCC2)cc1,"inconclusive: 22.4 µM [inhibitor, single point]"
12,Cc1ccc(CN2CC(C(=O)Nc3nnc(SCc4c(Cl)cccc4Cl)s3)CC2=O)cc1 (configuration not stated),"inconclusive: 14.1 µM [inhibitor, single point]"
13,O=C(COc1ncnc2ccccc12)c1ccc2c(c1)OCCO2,inactive
14,Cc1noc(C)c1COC(=O)COc1ccc2c(C)cc(=O)oc2c1,"inconclusive: 10 µM [inhibitor, partial curve]"
15,COc1cccc(-c2cccc(-c3nc(C(=O)NCc4ccc5c(c4)OCO5)cc4c3[C@H](CCO)N(S(=O)C(C)(C)C)C4)c2)c1 (some centres not stated),active: 15.8 µM
16,O=C(Nc1cc2nn(-c3ccccc3)nc2cc1Cl)c1ccco1,"inconclusive: 0.631 µM [inhibitor, full curve, poor fit]"
17,CC(=O)c1cccc(Nc2c3c(nc4ccccc24)CCC3)c1,"inconclusive: 20 µM [inhibitor, single point]"
18,CCCn1c(NC(=O)c2ccccc2Br)nc2ccccc21,"inconclusive: 35.5 µM [inhibitor, single point]"
19,CC(C)Cn1c(SCC(=O)N2CC(=O)Nc3ccccc32)nc2ccccc21,inactive
20,Cc1ccccc1-c1nc(CS(=O)CC(=O)NCc2ccccc2)c(C)o1 (configuration not stated),"inconclusive: 35.5 µM [inhibitor, single point]"
21,O=C(NCc1ccc(F)cc1)c1ccc(CSc2nc3ccncc3n2Cc2ccc(F)cc2)cc1,"inconclusive: 14.1 µM [inhibitor, single point]"
